Some of the results follow.
These sequences were tested against no compound (DMSO) (assay: log2 fold change of degron read counts, EGFP-low vs EGFP+ sorted cells; higher = lower degron-EGFP level without compound (poor expression or instability)). Settings: compound: DMSO control; 18 h.
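Further: jurkat cells carrying a lentiviral library of mutant zinc finger degrons fused to EGFP plus mCherry, mCherry+ cells FACS sorted, degron abundance counted by next-generation sequencing.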

Sequence	log2 fold change of degron read counts
LACPICGFWCTQKGNLLRHIKL	1.55
FECNQCGHRFTQKGNLLRHIKL	-0.949
FCCNQCGAIFTQKGNLLRHIKL	0.0266
LCCNQCGFCCTQKGNLLRHIKL	0.302
FTCEICGHIFTQKGNLLRHIKL	-1.45
FVCEVCGAMFTQKGNLLRHIKL	-0.809
FICEICGASFTQKGNLLRHIKL	-2.18
FFCPICGRPFTQKGNLLRHIKL	0.0529
FACPICGHRFTQKGNLLRHIKL	-0.49
FICDQCGAWFTQKGNLLRHIKL	-0.945
FQCDQCGADFTQKGNLLRHIKL	-2.71
LVCEICGFHCTQKGNLLRHIKL	-0.453
FLCDQCGACFTQKGNLLRHIKL	-1.17
FACPICGRQFTQKGNLLRHIKL	-0.159
FMCPICGHFFTQKGNLLRHIKL	0.756
FYCDICGAWFTQKGNLLRHIKL	0.335
LFCEICGFGCTQKGNLLRHIKL	0.551
FDCEICGRAFTQKGNLLRHIKL	-0.872
FDCEQCGARFTQKGNLLRHIKL	-1.61
FYCPQCGAWFTQKGNLLRHIKL	0.958
FDCNQCGAIFTQKGNLLRHIKL	-0.124
FHCEICGADFTQKGNLLRHIKL	-2.01
FECPQCGAAFTQKGNLLRHIKL	-1.84
FDCEICGASFTQKGNLLRHIKL	-2.09
FFCDQCGASFTQKGNLLRHIKL	-1.95

Sequence	log2 fold change of degron read counts
FICPICGRNFTQKGNLLRHIKL	0.0153
FICNQCGAEFTQKGNLLRHIKL	-1.14
FVCNICGAHFTQKGNLLRHIKL	-0.188
FLCEQCGATFTQKGNLLRHIKL	-1.51
FACPICGAHFTQKGNLLRHIKL	-0.056
FECEQCGAHFTQKGNLLRHIKL	-2.01
FACNQCGASFTQKGNLLRHIKL	-1.35
FYCEICGRWFTQKGNLLRHIKL	0.95
LHCPICGFDCTQKGNLLRHIKL	0.508
FSCNQCGHKFTQKGNLLRHIKL	0.0702
FVCEVCGAPFTQKGNLLRHIKL	-1.1
LVCPICGFKCTQKGNLLRHIKL	0.146
FNCNICGAPFTQKGNLLRHIKL	0.244
FNCEICGHEFTQKGNLLRHIKL	-1.39
LLCNQCGFVCTQKGNLLRHIKL	1.11
FKCEICGAWFTQKGNLLRHIKL	-0.746
FFCEICGHHFTQKGNLLRHIKL	-1.73
FQCNICGASFTQKGNLLRHIKL	-0.292
FRCDICGAYFTQKGNLLRHIKL	-0.232
FSCDQCGATFTQKGNLLRHIKL	-1.55
FQCDICGAHFTQKGNLLRHIKL	-1.43
FECNQCGRGFTQKGNLLRHIKL	-1.13
FDCPICGHPFTQKGNLLRHIKL	-1.66
LQCEICGFHCTQKGNLLRHIKL	-0.159
FCCPICGAWFTQKGNLLRHIKL	1.11

Reference: the supplement of paper PMC12645437, “Orthogonal IMiD-Degron Pairs Induce Selective Protein Degradation in Cells” (ACS Chemical Biology, 2025)
